Test results from US11492385B2, “Long-acting co-agonists of the glucagon and GLP-1 receptors” (Merck Sharp & Dohme Corp., priority 2015, dated 2022).
Not every detail of the peptide structures is certain; ends, links or a residue may be inferred. At least one structure is not confirmed: it was looked up by name or label, or the drawing left a doubt. Starred links: 1 amine or outer side, 2 acyl side, 3 side chain; linkers in the order of their positions; H or OH if unused. Non-standard residues stand in square brackets, D forms with d. Residues, ends and D or L forms follow the SMILES beside them. Groups on a side chain read outwards from the residue. *: point of attachment. C20 diacid = O=C(O)CCCCCCCCCCCCCCCCCCC(=O)*; Phe(4-CH2NH2) = NCc1ccc(C[C@H](N)C(=O)O)cc1; C18 diacid = O=C(O)CCCCCCCCCCCCCCCCC(=O)*; C17 diacid = O=C(O)CCCCCCCCCCCCCCCC(=O)*; γGlu = O=C(O)[C@H](CCC(=O)[*:2])N[*:1]; Met(O2) = CS(=O)(=O)CC[C@H](N)C(=O)O; Palmitoyl = CCCCCCCCCCCCCCCC(=O)*; αMeD = C[C@](N)(CC(=O)O)C(=O)O; AEEA = NCCOCCOCC(=O)O; Aib = CC(C)(N)C(=O)O

Assays:
human GLP1R = biological target: T1, human GLP1R (Homo sapiens, UniProt P43220); experiment: cAMP activity assay, cells expressing human GLP1R; format: cell-based; conditions: cAMP production, assay buffer with or without 20% human serum (not stated which)
T1 construct: expressed in transfected cells; kept under Blasticidin and Hygromycin selection
Description: (§1) Activity of the peptides at the Glucagon receptor (GCGR) and GLP-1 receptor (GLP1R) was measured in a cAMP activity assay. Peptides were dissolved in 100% DMSO and serially diluted to generate 10 point titrations. The peptide solutions were then transferred into 384-well assay plates (150 nL/well). […] Production of cAMP was determined using […] kits (DiscoverX) following manufacturer protocol. The plates were incubated for overnight at room temperature in the dark. Luminescence was measured using an EnVision Multilabel plate reader (Perkin Elmer). Native GLP-1 and Glucagon (Bachem) are used as control peptides. EC50 values were calculated using uses a 4 parameter logistic fit based on the Levenberg-Marquardt algorithm.

human GCGR = biological target: T2, human GCGR (Homo sapiens, UniProt P47871); experiment: cAMP activity assay, cells expressing human GCGR; format: cell-based; conditions: for EC50: cAMP production, cells expressing human GCGR, assay buffer with or without 20% human serum (not stated which); for hGCGR/hGLP1R (hTone): ratio of human GCGR EC50 to human GLP1R EC50
T2 construct: expressed in transfected cells; kept under Blasticidin and Hygromycin selection
Description: as §1

T1 sequence (P43220 24-463): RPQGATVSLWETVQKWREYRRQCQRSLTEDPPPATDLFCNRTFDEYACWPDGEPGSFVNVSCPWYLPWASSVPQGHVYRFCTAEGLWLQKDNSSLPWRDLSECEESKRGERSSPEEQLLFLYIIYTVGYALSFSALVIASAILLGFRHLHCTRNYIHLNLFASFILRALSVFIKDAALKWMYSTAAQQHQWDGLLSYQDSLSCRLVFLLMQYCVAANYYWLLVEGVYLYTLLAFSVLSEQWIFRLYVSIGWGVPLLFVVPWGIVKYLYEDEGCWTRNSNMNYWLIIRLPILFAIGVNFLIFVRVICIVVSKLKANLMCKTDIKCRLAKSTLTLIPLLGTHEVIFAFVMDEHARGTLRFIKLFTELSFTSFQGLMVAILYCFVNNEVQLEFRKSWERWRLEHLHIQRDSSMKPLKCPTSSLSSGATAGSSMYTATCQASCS
T2 sequence (P47871 26-477): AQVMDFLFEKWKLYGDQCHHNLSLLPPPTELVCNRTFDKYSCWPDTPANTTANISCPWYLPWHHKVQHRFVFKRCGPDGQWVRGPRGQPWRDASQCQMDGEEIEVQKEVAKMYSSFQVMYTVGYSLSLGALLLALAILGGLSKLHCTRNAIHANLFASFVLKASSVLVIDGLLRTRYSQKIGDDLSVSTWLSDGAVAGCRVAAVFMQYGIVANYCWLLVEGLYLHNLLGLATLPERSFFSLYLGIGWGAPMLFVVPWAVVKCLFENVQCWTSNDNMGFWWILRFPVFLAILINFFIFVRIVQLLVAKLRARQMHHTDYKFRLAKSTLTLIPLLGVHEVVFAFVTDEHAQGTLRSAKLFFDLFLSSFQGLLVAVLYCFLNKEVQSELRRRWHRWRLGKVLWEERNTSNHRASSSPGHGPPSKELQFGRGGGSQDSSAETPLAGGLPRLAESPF

SMILES | EC50 (human GLP1R) | EC50 (human GCGR) | hGCGR/hGLP1R (hTone) (human GCGR)
CC(C)C[C@H](NC(=O)[C@H](Cc1ccc(O)cc1)NC(=O)[C@H](CCCCNC(=O)COCCOCCNC(=O)COCCOCCNC(=O)CC[C@H](NC(=O)CCCCCCCCCCCCCCCCC(=O)O)C(=O)O)NC(=O)[C@H](CO)NC(=O)[C@H](Cc1ccc(O)cc1)NC(=O)[C@H](CC(=O)O)NC(=O)[C@H](CO)NC(=O)[C@@H](NC(=O)[C@H](Cc1ccccc1)NC(=O)[C@@H](NC(=O)CNC(=O)[C@H](CCC(N)=O)NC(=O)[C@@H](CO)NC(=O)[C@@H](N)Cc1c[nH]cn1)[C@@H](C)O)[C@@H](C)O)C(=O)N[C@@H](CC(=O)O)C(=O)N[C@@H](C)C(=O)N[C@@H](CCCNC(=N)N)C(=O)N[C@@H](C)C(=O)N[C@@H](C)C(=O)N[C@@H](CCC(N)=O)C(=O)N[C@@H](CC(=O)O)C(=O)N[C@@H](Cc1ccccc1)C(=O)N[C@H](C(=O)N[C@@H](CCC(N)=O)C(=O)N[C@@H](Cc1c[nH]c2ccccc12)C(=O)N[C@@H](CC(C)C)C(=O)N[C@@H](CC(C)C)C(=O)N[C@@H](CC(=O)O)C(=O)N[C@H](C(N)=O)[C@@H](C)O)C(C)C [compound 7] (H-H[dS]QGTFTSDYSK([AEEA-AEEA-γGlu-C18 diacid])YLDARAAQDFVQWLLDT-NH2; N-terminus assumed) | 0.57 nM | 0.78 nM | 1.36
CCCCCCCCCCCCCCCC(=O)N[C@@H](CCC(=O)NCCOCCOCC(=O)NCCOCCOCC(=O)NCc1ccc(C[C@H](NC(=O)[C@H](CC(=O)O)NC(=O)[C@H](CO)NC(=O)[C@@H](NC(=O)[C@H](Cc2ccccc2)NC(=O)[C@@H](NC(=O)CNC(=O)[C@H](CCC(N)=O)NC(=O)C(C)(C)NC(=O)[C@@H](N)Cc2c[nH]cn2)[C@@H](C)O)[C@@H](C)O)C(=O)N[C@@H](CO)C(=O)N[C@@H](CCCCN)C(=O)N[C@@H](Cc2ccc(O)cc2)C(=O)N[C@@H](CC(C)C)C(=O)N[C@@H](CC(=O)O)C(=O)N[C@@H](C)C(=O)N[C@@H](CCCNC(=N)N)C(=O)N[C@@H](C)C(=O)N[C@@H](C)C(=O)N[C@@H](CCC(N)=O)C(=O)N[C@@H](CC(=O)O)C(=O)N[C@@H](Cc2ccccc2)C(=O)N[C@H](C(=O)N[C@@H](CCC(N)=O)C(=O)N[C@@H](Cc2c[nH]c3ccccc23)C(=O)N[C@@H](CC(C)C)C(=O)N[C@@H](CCS(C)(=O)=O)C(=O)N[C@@H](CC(=O)O)C(=O)N[C@H](C(N)=O)[C@@H](C)O)C(C)C)cc1)C(=O)O [compound 13] (H-H[Aib]QGTFTSD[Phe(4-CH2NH2)]([AEEA-AEEA-γGlu-Palmitoyl])SKYLDARAAQDFVQWL[Met(O2)]DT-NH2) | 0.02 nM | 0.04 nM | 
CC(C)C[C@H](NC(=O)[C@H](Cc1ccc(O)cc1)NC(=O)[C@H](CCCCN)NC(=O)[C@H](CO)NC(=O)[C@H](Cc1ccc(O)cc1)NC(=O)[C@H](CC(=O)O)NC(=O)[C@H](CO)NC(=O)[C@@H](NC(=O)[C@H](Cc1ccccc1)NC(=O)[C@@H](NC(=O)CNC(=O)[C@H](CCC(N)=O)NC(=O)[C@@H](CO)NC(=O)[C@@H](N)Cc1c[nH]cn1)[C@@H](C)O)[C@@H](C)O)C(=O)N[C@@H](CC(=O)O)C(=O)N[C@@H](C)C(=O)N[C@@H](CCCNC(=N)N)C(=O)N[C@@H](C)C(=O)N[C@@H](C)C(=O)N[C@@H](CCC(N)=O)C(=O)N[C@@H](CCCCNC(=O)COCCOCCNC(=O)COCCOCCNC(=O)CC[C@H](NC(=O)CCCCCCCCCCCCCCCCC(=O)O)C(=O)O)C(=O)N[C@@H](Cc1ccccc1)C(=O)N[C@H](C(=O)N[C@@H](CCC(N)=O)C(=O)N[C@@H](Cc1c[nH]c2ccccc12)C(=O)N[C@@H](CC(C)C)C(=O)N[C@@H](CC(C)C)C(=O)N[C@@H](CC(=O)O)C(=O)N[C@H](C(N)=O)[C@@H](C)O)C(C)C [compound 21] (H-H[dS]QGTFTSDYSKYLDARAAQK([AEEA-AEEA-γGlu-C18 diacid])FVQWLLDT-NH2) | 0.2 nM | 0.03 nM | 
CC(C)C[C@H](NC(=O)[C@H](Cc1ccc(O)cc1)NC(=O)[C@H](CCCCN)NC(=O)[C@H](CO)NC(=O)[C@H](Cc1ccc(O)cc1)NC(=O)[C@H](CC(=O)O)NC(=O)[C@H](CO)NC(=O)[C@@H](NC(=O)[C@H](Cc1ccccc1)NC(=O)[C@@H](NC(=O)CNC(=O)[C@H](CCC(N)=O)NC(=O)C(C)(C)NC(=O)[C@@H](N)Cc1c[nH]cn1)[C@@H](C)O)[C@@H](C)O)C(=O)N[C@@H](CC(=O)O)C(=O)N[C@@H](C)C(=O)N[C@@H](CCCNC(=N)N)C(=O)N[C@@H](C)C(=O)N[C@@H](C)C(=O)N[C@@H](CCCCNC(=O)COCCOCCNC(=O)COCCOCCNC(=O)CC[C@H](NC(=O)CCCCCCCCCCCCCCCCC(=O)O)C(=O)O)C(=O)N[C@@](C)(CC(=O)O)C(=O)N[C@@H](Cc1ccccc1)C(=O)N[C@H](C(=O)N[C@@H](CCC(N)=O)C(=O)N[C@@H](Cc1c[nH]c2ccccc12)C(=O)N[C@@H](CC(C)C)C(=O)N[C@@H](CCS(C)(=O)=O)C(=O)N[C@@H](CC(=O)O)C(=O)N[C@H](C(N)=O)[C@@H](C)O)C(C)C [compound 35] (H-H[Aib]QGTFTSDYSKYLDARAAK([AEEA-AEEA-γGlu-C18 diacid])[αMeD]FVQWL[Met(O2)]DT-NH2; N-terminus assumed) | 0.12 nM | 0.66 nM | 5.35
CC(C)C[C@H](NC(=O)[C@H](Cc1ccc(O)cc1)NC(=O)[C@H](CCCCN)NC(=O)[C@H](CO)NC(=O)[C@H](Cc1ccc(O)cc1)NC(=O)[C@H](CC(=O)O)NC(=O)[C@H](CO)NC(=O)[C@@H](NC(=O)[C@H](Cc1ccccc1)NC(=O)[C@@H](NC(=O)CNC(=O)[C@H](CCC(N)=O)NC(=O)C(C)(C)NC(=O)[C@@H](N)Cc1c[nH]cn1)[C@@H](C)O)[C@@H](C)O)C(=O)N[C@@H](CC(=O)O)C(=O)N[C@@H](C)C(=O)N[C@@H](CCCNC(=N)N)C(=O)N[C@@H](C)C(=O)N[C@@H](C)C(=O)N[C@@H](CCCCNC(=O)COCCOCCNC(=O)COCCOCCNC(=O)CC[C@H](NC(=O)CCCCCCCCCCCCCCCC(=O)O)C(=O)O)C(=O)N[C@@H](CC(=O)O)C(=O)N[C@@H](Cc1ccccc1)C(=O)N[C@H](C(=O)N[C@@H](CCC(N)=O)C(=O)N[C@@H](Cc1c[nH]c2ccccc12)C(=O)N[C@@H](CC(C)C)C(=O)N[C@@H](CCS(C)(=O)=O)C(=O)N[C@@H](CC(=O)O)C(=O)N[C@H](C(N)=O)[C@@H](C)O)C(C)C [compound 47] (H-H[Aib]QGTFTSDYSKYLDARAAK([AEEA-AEEA-γGlu-C17 diacid])DFVQWL[Met(O2)]DT-NH2) | 0.17 nM | 0.22 nM | 
CC(C)C[C@H](NC(=O)[C@H](Cc1c[nH]c2ccccc12)NC(=O)[C@H](CCC(N)=O)NC(=O)[C@@H](NC(=O)[C@H](Cc1ccccc1)NC(=O)[C@H](CC(=O)O)NC(=O)[C@H](CCCCNC(=O)COCCOCCNC(=O)COCCOCCNC(=O)CC[C@H](NC(=O)CCCCCCCCCCCCCCCCCCC(=O)O)C(=O)O)NC(=O)[C@H](C)NC(=O)[C@H](C)NC(=O)[C@H](CCCNC(=N)N)NC(=O)C(C)(C)NC(=O)[C@H](CC(=O)O)NC(=O)[C@H](CC(C)C)NC(=O)[C@H](Cc1ccc(O)cc1)NC(=O)[C@H](CCCCN)NC(=O)[C@H](CO)NC(=O)[C@H](Cc1ccc(O)cc1)NC(=O)[C@H](CC(=O)O)NC(=O)[C@H](CO)NC(=O)[C@@H](NC(=O)[C@H](Cc1ccccc1)NC(=O)[C@@H](NC(=O)CNC(=O)[C@H](CCC(N)=O)NC(=O)C(C)(C)NC(=O)[C@@H](N)Cc1c[nH]cn1)[C@@H](C)O)[C@@H](C)O)C(C)C)C(=O)N[C@@H](CCS(C)(=O)=O)C(=O)N[C@@H](CC(=O)O)C(=O)N[C@H](C(N)=O)[C@@H](C)O [compound 69] (H-H[Aib]QGTFTSDYSKYLD[Aib]RAAK([AEEA-AEEA-γGlu-C20 diacid])DFVQWL[Met(O2)]DT-NH2; N-terminus assumed) |  |  | 1
